The target in one assay is Flag-USP9X (UniProt Q93008). The assay is described as follows: co-IP; lysates of 293T cells transfected with Flag-tagged DUBs; IP with Flag beads, IB for endogenous POLD4 and Flag.
Assay [1] has as its target T1, Flag-UCHL3 WT (ubiquitin carboxyl terminal hydrolase L3) (UniProt P15374).
T1 sequence: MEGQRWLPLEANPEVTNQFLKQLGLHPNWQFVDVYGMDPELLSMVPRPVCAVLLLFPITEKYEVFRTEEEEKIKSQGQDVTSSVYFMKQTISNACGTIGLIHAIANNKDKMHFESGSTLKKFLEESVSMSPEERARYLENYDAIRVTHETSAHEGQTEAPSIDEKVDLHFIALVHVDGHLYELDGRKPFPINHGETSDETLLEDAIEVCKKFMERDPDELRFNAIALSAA
The assay is described as above.

Protein sequences, listed by entry. Tags and fused reporters are not part of them.
UniProt Q93008: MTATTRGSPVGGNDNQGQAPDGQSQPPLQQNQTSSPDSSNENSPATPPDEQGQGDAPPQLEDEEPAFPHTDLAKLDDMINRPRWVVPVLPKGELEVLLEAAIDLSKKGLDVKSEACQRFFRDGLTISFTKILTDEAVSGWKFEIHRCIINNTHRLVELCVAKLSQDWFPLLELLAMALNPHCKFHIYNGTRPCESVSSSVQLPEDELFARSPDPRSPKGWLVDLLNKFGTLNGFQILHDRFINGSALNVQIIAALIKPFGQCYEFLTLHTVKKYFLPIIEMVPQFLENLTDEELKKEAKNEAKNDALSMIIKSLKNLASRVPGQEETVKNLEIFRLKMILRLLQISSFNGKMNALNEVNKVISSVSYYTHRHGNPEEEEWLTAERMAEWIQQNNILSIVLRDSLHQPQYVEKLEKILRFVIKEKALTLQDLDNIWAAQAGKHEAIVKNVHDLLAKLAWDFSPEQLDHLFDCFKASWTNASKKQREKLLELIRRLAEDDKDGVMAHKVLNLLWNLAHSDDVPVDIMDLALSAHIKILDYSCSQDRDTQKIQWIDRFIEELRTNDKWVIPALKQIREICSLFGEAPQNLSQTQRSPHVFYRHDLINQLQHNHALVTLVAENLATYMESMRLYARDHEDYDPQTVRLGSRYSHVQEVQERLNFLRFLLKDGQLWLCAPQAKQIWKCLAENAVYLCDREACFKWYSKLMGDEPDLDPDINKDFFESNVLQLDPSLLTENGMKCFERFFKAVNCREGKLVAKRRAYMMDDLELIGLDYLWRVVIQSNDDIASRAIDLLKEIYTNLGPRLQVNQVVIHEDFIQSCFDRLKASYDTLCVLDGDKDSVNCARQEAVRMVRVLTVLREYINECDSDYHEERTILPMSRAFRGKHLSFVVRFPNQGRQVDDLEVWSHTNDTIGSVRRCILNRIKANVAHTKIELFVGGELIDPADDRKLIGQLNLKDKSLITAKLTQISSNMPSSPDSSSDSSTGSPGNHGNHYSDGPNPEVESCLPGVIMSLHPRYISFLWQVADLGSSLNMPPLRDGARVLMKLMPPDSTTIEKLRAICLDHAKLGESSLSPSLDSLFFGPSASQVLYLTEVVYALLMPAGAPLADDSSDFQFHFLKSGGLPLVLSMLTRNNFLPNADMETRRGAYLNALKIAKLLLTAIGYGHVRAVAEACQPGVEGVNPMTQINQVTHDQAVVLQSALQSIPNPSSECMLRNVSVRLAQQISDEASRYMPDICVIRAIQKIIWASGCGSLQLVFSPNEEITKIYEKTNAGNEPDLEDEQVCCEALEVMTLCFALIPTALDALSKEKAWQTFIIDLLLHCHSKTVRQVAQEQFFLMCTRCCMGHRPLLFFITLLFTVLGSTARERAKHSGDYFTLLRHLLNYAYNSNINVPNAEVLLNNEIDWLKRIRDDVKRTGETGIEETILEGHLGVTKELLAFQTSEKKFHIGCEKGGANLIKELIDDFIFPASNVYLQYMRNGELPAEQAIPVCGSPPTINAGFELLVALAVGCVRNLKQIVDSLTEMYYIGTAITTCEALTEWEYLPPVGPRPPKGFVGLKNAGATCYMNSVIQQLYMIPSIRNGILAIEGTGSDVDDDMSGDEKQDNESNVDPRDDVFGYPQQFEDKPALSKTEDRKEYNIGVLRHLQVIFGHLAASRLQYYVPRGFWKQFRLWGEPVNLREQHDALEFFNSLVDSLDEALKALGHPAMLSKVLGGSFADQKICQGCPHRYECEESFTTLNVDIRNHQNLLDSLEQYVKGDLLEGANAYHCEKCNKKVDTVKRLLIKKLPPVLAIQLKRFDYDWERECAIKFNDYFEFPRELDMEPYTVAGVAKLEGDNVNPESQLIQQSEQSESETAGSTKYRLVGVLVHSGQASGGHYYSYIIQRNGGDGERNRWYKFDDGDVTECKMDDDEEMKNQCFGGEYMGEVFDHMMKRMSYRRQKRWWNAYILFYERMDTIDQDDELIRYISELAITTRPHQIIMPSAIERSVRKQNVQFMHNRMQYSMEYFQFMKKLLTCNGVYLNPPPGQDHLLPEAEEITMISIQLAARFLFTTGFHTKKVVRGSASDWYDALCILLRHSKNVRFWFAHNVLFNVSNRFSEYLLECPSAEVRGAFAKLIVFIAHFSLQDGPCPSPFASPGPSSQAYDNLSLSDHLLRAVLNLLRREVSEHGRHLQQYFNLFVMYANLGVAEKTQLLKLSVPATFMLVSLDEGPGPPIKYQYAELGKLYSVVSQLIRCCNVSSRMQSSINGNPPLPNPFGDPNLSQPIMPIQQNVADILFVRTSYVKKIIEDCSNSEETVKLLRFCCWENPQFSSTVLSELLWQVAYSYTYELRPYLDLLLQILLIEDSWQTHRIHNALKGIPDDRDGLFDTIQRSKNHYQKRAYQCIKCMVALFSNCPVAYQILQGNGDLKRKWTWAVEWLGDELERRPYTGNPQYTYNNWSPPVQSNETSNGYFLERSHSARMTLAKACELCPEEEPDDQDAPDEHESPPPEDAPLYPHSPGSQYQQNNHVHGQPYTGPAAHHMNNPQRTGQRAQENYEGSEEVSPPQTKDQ
UniProt P09936: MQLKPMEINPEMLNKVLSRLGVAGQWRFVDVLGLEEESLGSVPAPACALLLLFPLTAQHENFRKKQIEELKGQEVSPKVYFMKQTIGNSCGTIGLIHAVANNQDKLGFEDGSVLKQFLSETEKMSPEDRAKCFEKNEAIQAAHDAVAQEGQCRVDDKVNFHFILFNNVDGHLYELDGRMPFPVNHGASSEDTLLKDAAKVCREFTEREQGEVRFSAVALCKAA

In another assay the target is Flag-UCHL1 (UniProt P09936). Described as above.
Another assay deals with T2, Flag-USP22 (UniProt Q9UPT9).
T2 sequence: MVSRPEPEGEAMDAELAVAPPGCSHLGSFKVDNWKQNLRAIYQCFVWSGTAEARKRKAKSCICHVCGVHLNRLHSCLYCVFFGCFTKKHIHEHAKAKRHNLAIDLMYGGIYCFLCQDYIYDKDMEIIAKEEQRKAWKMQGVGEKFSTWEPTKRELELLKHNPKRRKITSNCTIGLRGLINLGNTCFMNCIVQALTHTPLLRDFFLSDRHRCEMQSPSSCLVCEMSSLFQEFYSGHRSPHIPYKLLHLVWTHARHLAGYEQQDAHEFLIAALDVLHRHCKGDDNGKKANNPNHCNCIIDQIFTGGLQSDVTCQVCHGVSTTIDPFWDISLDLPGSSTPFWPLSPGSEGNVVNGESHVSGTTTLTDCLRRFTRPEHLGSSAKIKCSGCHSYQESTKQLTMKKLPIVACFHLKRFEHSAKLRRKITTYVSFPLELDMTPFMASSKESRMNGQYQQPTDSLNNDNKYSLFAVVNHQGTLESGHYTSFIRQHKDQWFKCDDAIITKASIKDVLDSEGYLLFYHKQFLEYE
Described as above.

The target in assay [2] is T1, Flag-UCHL3 WT (ubiquitin carboxyl terminal hydrolase L3). The assay is described as follows: co-IP; lysates of 293T cells transfected with His-POLD4 alone or with Flag-UCHL3 WT or S75A; IP with Flag beads, IB with His and Flag antibodies.
A further assay addresses T3, Flag-UCHL3 S75A (UniProt P15374).
T3 sequence: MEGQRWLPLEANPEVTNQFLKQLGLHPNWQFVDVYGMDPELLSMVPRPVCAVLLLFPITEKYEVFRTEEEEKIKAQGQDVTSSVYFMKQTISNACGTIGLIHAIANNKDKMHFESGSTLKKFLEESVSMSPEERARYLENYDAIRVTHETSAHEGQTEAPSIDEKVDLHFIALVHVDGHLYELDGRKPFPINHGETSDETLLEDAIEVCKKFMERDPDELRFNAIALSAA
Described as above.

Assay [3] concerns the target T4, endogenous UCHL3 (MES GSCs) (human (endogenous in MES21 and MES505 GSCs)) (UniProt P15374).
T4 sequence: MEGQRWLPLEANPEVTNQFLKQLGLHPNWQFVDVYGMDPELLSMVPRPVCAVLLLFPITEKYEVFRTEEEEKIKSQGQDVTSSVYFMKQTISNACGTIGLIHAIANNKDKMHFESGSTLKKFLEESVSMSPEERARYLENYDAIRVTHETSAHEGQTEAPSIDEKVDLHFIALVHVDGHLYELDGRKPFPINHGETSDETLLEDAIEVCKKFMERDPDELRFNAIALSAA
In words: co-IP; endogenous proteins in MES21 and MES505 lysates; IP with anti-POLD4 or anti-UCHL3 antibody, IgG isotype control, IB.

Another assay concerns the target T5, GST-POLD4 (UniProt Q9HCU8).
T5 sequence: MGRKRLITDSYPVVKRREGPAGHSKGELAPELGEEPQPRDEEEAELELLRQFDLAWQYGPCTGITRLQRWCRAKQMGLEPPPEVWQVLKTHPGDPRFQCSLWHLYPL
The assay is described as follows: pull-down; Glutathione Sepharose beads coated with GST-POLD4 incubated with HEK293T extract expressing Flag-UCHL3 WT or S75A, 2 h at 4 C, four washes, IB anti-Flag (the legend of Fig. 5E says purified Flag-proteins); only the target purified.

Results are given in words; binding and its absence hold for the method and conditions named. Binding seen in cells or lysates may run through a third protein. Some binding calls cover weakened binding; strength is not graded here. For part of these data: Sequences can lack the tags named with a protein.

B1: endogenous POLD4 (HEK293T) (protein, UniProt Q9HCU8 1-107)
chain: MGRKRLITDSYPVVKRREGPAGHSKGELAPELGEEPQPRDEEEAELELLRQFDLAWQYGPCTGITRLQRWCRAKQMGLEPPPEVWQVLKTHPGDPRFQCSLWHLYPL
With B1, the binding entry is on record as “no binding” with Flag-USP9X, “binds” in assay [1], “no binding” with Flag-UCHL1 and “no binding” in the assay with Flag-USP22.

B2: His-POLD4 (protein, UniProt Q9HCU8 1-107)
chain: MGRKRLITDSYPVVKRREGPAGHSKGELAPELGEEPQPRDEEEAELELLRQFDLAWQYGPCTGITRLQRWCRAKQMGLEPPPEVWQVLKTHPGDPRFQCSLWHLYPL
For the molecule B2, the binding entry (in assay [2]; in the assay with Flag-UCHL3 S75A) was “binds” in each case.

B3: endogenous POLD4 (MES GSCs) (protein, UniProt Q9HCU8 1-107)
chain: MGRKRLITDSYPVVKRREGPAGHSKGELAPELGEEPQPRDEEEAELELLRQFDLAWQYGPCTGITRLQRWCRAKQMGLEPPPEVWQVLKTHPGDPRFQCSLWHLYPL
With B3, the binding result in assay [3] is on record as “binds”.

B4: Flag-UCHL3 WT (ubiquitin carboxyl terminal hydrolase L3) (enzyme, UniProt P15374 1-230)
chain: MEGQRWLPLEANPEVTNQFLKQLGLHPNWQFVDVYGMDPELLSMVPRPVCAVLLLFPITEKYEVFRTEEEEKIKSQGQDVTSSVYFMKQTISNACGTIGLIHAIANNKDKMHFESGSTLKKFLEESVSMSPEERARYLENYDAIRVTHETSAHEGQTEAPSIDEKVDLHFIALVHVDGHLYELDGRKPFPINHGETSDETLLEDAIEVCKKFMERDPDELRFNAIALSAA
Regarding B4, in the assay with GST-POLD4, the binding entry was “binds”.

B5: Flag-UCHL3 S75A (enzyme, UniProt P15374 1-230)
chain: MEGQRWLPLEANPEVTNQFLKQLGLHPNWQFVDVYGMDPELLSMVPRPVCAVLLLFPITEKYEVFRTEEEEKIKAQGQDVTSSVYFMKQTISNACGTIGLIHAIANNKDKMHFESGSTLKKFLEESVSMSPEERARYLENYDAIRVTHETSAHEGQTEAPSIDEKVDLHFIALVHVDGHLYELDGRKPFPINHGETSDETLLEDAIEVCKKFMERDPDELRFNAIALSAA
As for B5, the binding entry with GST-POLD4 was “binds”.

For the origin of these results see publication PMC11149539.
